# Test results: PubChem BioAssay (Tox21)
# Several values for one entry are separate records, joined by “and”; a condition that tells them apart may be missing. Equal entries are not always repeated. The inconclusive results got no clear call from the source; some entries with a clear call stand among them for comparison. For some of these results: Where the call is inconclusive, the potency comes from a doubtful curve fit. Where a structure was tested more than once in an assay, its records may differ in their call. Activity calls are given as the source filed them. Unless noted, the call rests on the fitted dose curve; in most records, active means well fitted curve in the direction sought with a large enough effect in the repeat runs; inconclusive means weak or mixed curves; inactive means no such curve, though single readings can be large; an effect the other way counts as inactive or inconclusive.
# What was measured:
# [1] = qHTS assay to identify small molecule agonists of the TGF-beta/Smad signaling pathway - cell viability counter screen (AID 1346829); further: nearly all actives have a fitted effect of over 45% in size
# Summary of the method: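 SBE-bla HEK 293T cells plated overnight, compound exposure 5 hr at 37 C. Viability read in the same wells by CellTiter-Glo luminescence after 30 min at room temperature, following the beta-lactamase read.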
# [2] = qHTS assay to identify small molecule agonists of the TGF-beta/Smad signaling pathway (AID 1346859; active means well fitted activation curve with a large enough effect in the signal ratio in the repeat runs, not every such curve was filed as active; inconclusive means weak or mixed curves; the % refers to the signal ratio); conditions: SBE-bla HEK293T, TGF-beta/Smad beta-lactamase reporter, 5 h; activation: at 76.8 µM (top of the series) unless noted
# Summary of the method: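 Smad-responsive beta-lactamase reporter cells (HEK 293T) received compounds from DMSO stocks after overnight attachment, were incubated 5 hr, then treated 2 hr with FRET substrate before dual-emission fluorescence measurement (405 nm excitation).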
# [3] = qHTS assay to identify small molecule antagonists of the TGF-beta/Smad signaling pathway (AID 1346924; active means well fitted inhibition curve with a large enough effect in the signal ratio in the repeat runs, not every such curve was filed as active; inconclusive means weak or mixed curves; the % refers to the signal ratio); conditions: SBE-bla HEK293T, TGF-beta/Smad reporter, beta-lactamase ratio; activity, negative = inhibition: at 76.8 µM (top of the series) unless noted
# Summary of the method: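 Read-out was FRET-substrate fluorescence (405 nm excitation; 460 and 530 nm emission) after 2 h at room temperature. Before that, cells carrying a Smad-binding-element beta-lactamase reporter in HEK 293T had been stimulated 5 h at 37 C with TGF-beta1 (0.25 ng/mL addition solution) in the presence of test compound.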
# [4] = Human pregnane X receptor (PXR) small molecule agonists, qHTS cell viability counter screen (AID 1346977); further: nearly all actives have a fitted effect of over 50% in size
# Summary of the method: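 Measures live-cell protease fluorescence (CellTiter-Fluor) in PXR-Luc HepG2 cells treated 24hr with compounds at 37C. Cells had 5hr to attach before pin transfer of DMSO solutions.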
# [5] = Caspase-3/7 induction in HepG2 cells by small molecules, qHTS cell viability counter screen (AID 1346981); further: nearly all actives have a fitted effect of over 30% in size
# Summary of the method: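 The parent HepG2 line is plated at 2,000 cells per well and rested 5 hr before compound pinning from DMSO stocks. Following a 16-hr treatment at 37 C, a fluorogenic live-cell substrate (CellTiter-Fluor) reports viability after 1 hr.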
# [6] = biological target: Acetylcholinesterase (Homo sapiens) (UniProt P22303); assay: Acetylcholinesterase (AChE) small molecule antagonists: colormetric cell-based qHTS assay (AID 1347395; calls by dose curve; further: nearly all actives have a fitted effect of over 30% in size)
# Chain of UniProt P22303 (P22303 whole entry, looked up): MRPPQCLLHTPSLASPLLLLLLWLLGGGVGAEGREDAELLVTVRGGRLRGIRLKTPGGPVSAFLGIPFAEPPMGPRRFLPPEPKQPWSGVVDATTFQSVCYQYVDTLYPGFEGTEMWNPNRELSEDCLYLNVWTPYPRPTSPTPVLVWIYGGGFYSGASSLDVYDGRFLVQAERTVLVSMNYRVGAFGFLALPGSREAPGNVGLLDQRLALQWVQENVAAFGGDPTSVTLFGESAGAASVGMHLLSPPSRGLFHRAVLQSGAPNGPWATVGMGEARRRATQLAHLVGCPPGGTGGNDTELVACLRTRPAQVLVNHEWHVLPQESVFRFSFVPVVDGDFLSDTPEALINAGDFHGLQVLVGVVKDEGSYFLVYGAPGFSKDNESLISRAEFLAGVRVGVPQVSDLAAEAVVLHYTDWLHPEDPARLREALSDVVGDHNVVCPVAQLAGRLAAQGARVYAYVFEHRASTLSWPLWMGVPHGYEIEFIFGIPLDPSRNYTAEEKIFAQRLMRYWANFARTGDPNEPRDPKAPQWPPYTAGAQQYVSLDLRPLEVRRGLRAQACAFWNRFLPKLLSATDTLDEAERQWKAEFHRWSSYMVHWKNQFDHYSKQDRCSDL
# Summary of the method: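 Endogenous AChE of human neuroblastoma SH-SY5Y cells was measured with an Ellman-type DTNB/acetylthiocholine mix. Compound pretreatment lasted 30 min at 37 C; substrate reaction ran 90 min at 37 C.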
# [7] = biological target: Acetylcholinesterase (Homo sapiens) (UniProt P22303); assay: Acetylcholinesterase (AChE) small molecule antagonists: fluorescence cell-based qHTS assay (AID 1347398; calls by dose curve; further: nearly all actives have a fitted effect of over 50% in size); conditions: Potency: AChE activity
# Summary of the method: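 SH-SY5Y, 2,000 cells/well, attached overnight; cmpd 30 min 37 C; acetylthiocholine/Thiolite Green cocktail 40 min RT; fluorescence Ex/Em 490/520 nm.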
# [8] = biological target: Thyrotropin-releasing hormone receptor (Homo sapiens) (UniProt P34981); assay: qHTS assay to identify small molecule antagonists of the thyrotropin-releasing hormone receptor (TRHR) signaling pathway (AID 1346877; active means well fitted inhibition curve with a large enough effect in the repeat runs, not every such curve was filed as active; inconclusive means weak or mixed curves)
# Chain of UniProt P34981 (P34981 whole entry, looked up): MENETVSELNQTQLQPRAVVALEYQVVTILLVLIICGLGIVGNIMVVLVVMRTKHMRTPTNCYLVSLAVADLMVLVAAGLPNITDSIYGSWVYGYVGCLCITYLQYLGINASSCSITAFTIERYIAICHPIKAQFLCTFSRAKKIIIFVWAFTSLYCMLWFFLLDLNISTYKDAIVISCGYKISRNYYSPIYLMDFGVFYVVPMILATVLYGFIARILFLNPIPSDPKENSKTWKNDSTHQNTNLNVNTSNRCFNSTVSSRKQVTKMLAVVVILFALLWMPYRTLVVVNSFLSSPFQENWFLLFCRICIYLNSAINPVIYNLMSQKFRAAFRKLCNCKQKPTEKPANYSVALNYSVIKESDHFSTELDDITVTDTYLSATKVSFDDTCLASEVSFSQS
# Summary of the method: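 Human TRHR in HEK293 cells; inhibition of the intracellular calcium rise triggered by 1 nM TRH was followed by fluorescence over 3 min. Compounds were run at 15 concentrations, three replicates each.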
# [9] = biological target: Thyrotropin-releasing hormone receptor (Homo sapiens) (UniProt P34981); assay: qHTS assay to identify small molecule agonists of the thyrotropin-releasing hormone receptor (TRHR) signaling pathway (AID 1346891; calls by dose curve)
# Summary of the method: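 Agonist-mode calcium mobilisation screen: TRHR-transfected HEK293 cells cultured overnight (18 h), dye-loaded for 2 h at 37 °C, exposed to compounds, and monitored by fluorescence for 3 min.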
# [10] = Caspase-3/7 induction in HepG2 cells by small molecules, qHTS assay (AID 1346978); further: nearly all actives have a fitted effect of over 15% in size
# Summary of the method: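 Wild-type HepG2 cells, 2,000/well, settled 5 hr at 37 C and 5% CO2, then compound-treated for 17 hr; caspase-3/7 activity read by luminescent Caspase-Glo 3/7 after 30 min at room temperature.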
# [11] = Caspase-3/7 induction in CHO-K1 cells by small molecules, qHTS cell viability counter screen (AID 1346979); further: nearly all actives have a fitted effect of over 35% in size
# Summary of the method: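 In the same wells as the caspase read, viability of compound-treated wild-type CHO-K1 cells was assessed using CellTiter-Fluor, added after 16hr at 37C and measured by fluorescence following 1hr further incubation.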
# [12] = Caspase-3/7 induction in CHO-K1 cells by small molecules, qHTS assay (AID 1346980); further: nearly all actives have a fitted effect of over 15% in size
# Summary of the method: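 Wild-type CHO-K1 cells exposed to compounds for 17hr at 37 C, 5% CO2. Caspase-3/7 activity then measured by Caspase-Glo 3/7 luminescence after 30min at room temperature.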
# [13] = biological target: Cytochrome P450 2C19 (Homo sapiens) (UniProt P33261); assay: Cytochrome P450 Family 2 Subfamily C Member 19 (CYP2C19) small molecule antagonists: luciferase reporter qHTS assay (AID 1671197); further: nearly all actives have a fitted effect of over 65% in size
# Chain of UniProt P33261 (P33261 whole entry, looked up): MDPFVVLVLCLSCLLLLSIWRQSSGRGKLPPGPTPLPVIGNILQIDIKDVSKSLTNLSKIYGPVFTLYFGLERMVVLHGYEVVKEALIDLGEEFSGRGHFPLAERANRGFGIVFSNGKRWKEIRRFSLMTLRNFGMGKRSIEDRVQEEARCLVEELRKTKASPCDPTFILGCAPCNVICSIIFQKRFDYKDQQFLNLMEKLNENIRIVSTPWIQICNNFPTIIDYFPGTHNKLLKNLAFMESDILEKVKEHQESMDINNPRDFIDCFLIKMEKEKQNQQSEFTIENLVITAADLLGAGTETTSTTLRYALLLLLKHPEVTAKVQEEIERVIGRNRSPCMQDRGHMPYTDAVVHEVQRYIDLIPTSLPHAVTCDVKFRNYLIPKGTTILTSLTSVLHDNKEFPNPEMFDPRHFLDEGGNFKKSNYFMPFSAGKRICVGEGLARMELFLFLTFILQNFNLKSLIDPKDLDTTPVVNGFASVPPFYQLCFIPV
# Summary of the method: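 P450-Glo CYP2C19 system: enzyme-substrate mix with compound 10 min at room temperature, then NADPH regeneration solution, 1 h at 37C. Proluciferin-to-luciferin conversion detected by luminescence after 20 min with detection reagent; ketoconazole as positive control.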
# Potency means the concentration at half of the fitted maximal effect; tags describe the fitted curve by direction and shape or compound fluorescence and quenching.
Structure (SMILES),Potency [1],Potency [2],"activity, negative = inhibition [3]",Potency [4],Potency [5],Potency [6],Potency [7],Potency [8],Potency [9],Potency [3],Potency [10],Potency [11],Potency [12],Potency [13]
CCCN(CCOc1c(Cl)cc(Cl)cc1Cl)C(=O)n1ccnc1,"inconclusive: 56.1 µM [cytotoxic, single point]","inconclusive: 56.1 µM [rising, single point]",inconclusive: -13.5%,"inconclusive: 68.6 µM [cytotoxic, single point]","inconclusive: 68.6 µM [cytotoxic, single point]","inconclusive: 91.3 µM [inhibitor, partial curve, poor fit]","inconclusive: 45.7 µM [inhibitor, partial curve] and inconclusive: 35.6 µM [inhibitor, partial curve, poor fit]",–,–,–,–,–,–,–
CC[n+]1ccccc1,inconclusive: 54.5 µM [cytotoxic],"inconclusive: 48.6 µM [rising, partial curve]",–,active: 6.06 µM,active: 19.2 µM,–,–,–,–,–,–,–,–,–
CCCCCCCCCCCC[N+](C)(C)CCOc1ccccc1,active: 55 µM and active: 26.8 µM,–,–,"inconclusive: 33.5 µM [cytotoxic, single point]","active: 61.1 µM and inconclusive: 37.6 µM [cytotoxic, single point]","inconclusive: 89.4 µM [inhibitor, partial curve, poor fit]",–,inconclusive: 33.8 µM [inhibitor],"inconclusive: 43.7 µM [activator, partial curve, poor fit]",active: 50.9 µM,"inconclusive: 54.5 µM [activator, partial curve] and inconclusive: 33.5 µM [activator, single point]","inconclusive: 33.5 µM [cytotoxic, single point]","inconclusive: 68.6 µM [activator, partial curve, poor fit]","inconclusive: 43.6 µM [inhibitor, single point]"
